The supplement of paper PMC3334620
In all, about 33,000 sequences were measured (“E-score (-0.5 to 0.5)”: median about -0.054, highest 2% from about 0.35 on). The list shows a part of the results.

target: T1, Stb5 (UniProt P38699); test: PBM E-score (8-mer binding enrichment) (E-score (-0.5 to 0.5)); higher = stronger / more preferred TF binding; most listed sequences are background and not binding sites; conditions: protein concentration: 200 nM; construct: GST-full length
T1 sequence: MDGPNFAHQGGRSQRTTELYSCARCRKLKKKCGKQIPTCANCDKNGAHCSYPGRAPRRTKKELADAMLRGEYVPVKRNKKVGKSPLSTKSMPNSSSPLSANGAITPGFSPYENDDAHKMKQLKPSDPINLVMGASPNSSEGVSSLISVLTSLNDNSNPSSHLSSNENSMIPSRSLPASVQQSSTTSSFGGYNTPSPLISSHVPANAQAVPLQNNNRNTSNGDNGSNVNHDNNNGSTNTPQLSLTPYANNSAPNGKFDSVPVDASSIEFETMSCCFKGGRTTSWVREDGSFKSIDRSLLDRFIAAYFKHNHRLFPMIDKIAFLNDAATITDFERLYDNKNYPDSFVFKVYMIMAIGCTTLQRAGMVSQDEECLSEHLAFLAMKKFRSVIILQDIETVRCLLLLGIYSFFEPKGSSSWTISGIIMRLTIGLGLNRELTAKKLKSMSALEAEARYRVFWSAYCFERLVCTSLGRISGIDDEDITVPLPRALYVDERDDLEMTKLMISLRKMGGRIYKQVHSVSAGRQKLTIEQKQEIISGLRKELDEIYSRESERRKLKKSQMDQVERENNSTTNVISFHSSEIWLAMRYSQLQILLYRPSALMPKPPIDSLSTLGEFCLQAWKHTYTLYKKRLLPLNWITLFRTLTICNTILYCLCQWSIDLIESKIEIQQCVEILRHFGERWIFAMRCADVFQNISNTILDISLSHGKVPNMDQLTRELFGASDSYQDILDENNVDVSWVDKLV
Outline: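 Masliner-normalised scans of fluorescent anti-GST signal were the basis for scoring. That signal came from GST-tagged yeast transcription factors applied at about 100-200 nM to double-stranded universal all-10-mer Agilent arrays on fresh or once-stripped slides. Each ungapped eight-base word, pooled with its reverse complement, received an E-score from the Universal PBM Analysis Suite.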

| Sequence | PBM E-score |
| --- | --- |
| ACAACGAT | -0.00466 |
| CAGGCCGA | 0.153 |
| CCCTCGGA | 0.192 |
| CGACCCAG | 0.125 |
| CTTCTCAC | -0.0879 |
| CCTCGCAC | -0.0558 |
| TCTGACCA | -0.317 |
| AGCGCTCG | 0.114 |
| ACTCTGGG | -0.196 |
| ATGGATTA | -0.193 |
| ACATGGCT | -0.131 |
| AGTTGGTG | -0.103 |
| CCTCATAA | -0.087 |
| CCACCGGA | 0.329 |
| ACAACCAC | 0.0443 |
| GCGGCGAC | 0.297 |
| ATCATTGC | -0.147 |
| TGATACCA | 0.0905 |
| CTTCGGAC | 0.223 |
| AGACAAGC | -0.166 |
| AAACGCTC | -0.00871 |
| CGTAGCAC | 0.0605 |
| TCGATGCA | -0.2 |
| AATTGGGT | -0.154 |
| GAGAGATC | -0.118 |

| Sequence | PBM E-score |
| --- | --- |
| AAATCGAC | -0.0539 |
| ATCGCCCA | -0.255 |
| CTGACGTC | -0.289 |
| AAAGAGAA | -0.00974 |
| ACCAACAA | -0.199 |
| CCCTTTCC | 0.0224 |
| CCTCAAGA | -0.188 |
| AGGTAACT | -0.122 |
| ATGGCCAG | -0.178 |
| AGCGAAAA | -0.0961 |
| TCAACGAA | -0.00134 |
| CTTGTTTA | -0.00122 |
| ACTTTCCC | 0.178 |
| CAATCTTA | -0.142 |
| AACGCGGT | 0.243 |
| GTATGCCA | -0.162 |
| ACCAGCGG | 0.251 |
| CCGTGATC | 0.0557 |
| ACCTTGCA | -0.23 |
| ACGACGAA | -0.0817 |
| ACTCTACT | -0.197 |
| CCCCCAGA | -0.249 |
| AGAGAAGA | -0.152 |
| TTGAAAAA | -0.186 |
| AAAGTCTT | -0.135 |

| Sequence | PBM E-score |
| --- | --- |
| CGTAATTC | 0.0295 |
| AACTTATG | -0.125 |
| CACCCAAC | -0.144 |
| ATTGCGTC | 0.0727 |
| CTTAACCC | 0.129 |
| ACTTGCAG | -0.236 |
| CGCCAGTC | 0.131 |
| ATAAGCTA | -0.125 |
| ACCTACTC | -0.115 |
| AGCCGGCC | 0.111 |
| AAGCTTGA | -0.0796 |
| AAGTCAGA | -0.103 |
| CACGGTCA | 0.0858 |
| GAAATATC | 0.151 |
| GCCCAAAC | -0.0152 |
| AGTATGTC | -0.178 |
| CACCTACA | -0.0718 |
| ATTAGATC | 0.124 |
| GCAAGCTA | -0.239 |
| AACTGACT | -0.0187 |
| GCGTACAC | -0.0888 |
| ATCGGATG | 0.168 |
| CTTGCAGC | -0.116 |
| AACGTAAG | -0.215 |
| GATTCTGA | -0.00721 |

| Sequence | PBM E-score |
| --- | --- |
| CAATACTG | -0.203 |
| ATCTTTAC | 0.0505 |
| TAATCGTA | -0.118 |
| CCCAAAAA | -0.103 |
| AGAGGATC | -0.332 |
| TCCTGAGA | -0.0464 |
| AAGTAATA | 0.0108 |
| GTCCACAA | -0.26 |
| GCACACAC | -0.151 |
| ACCTAATG | -0.156 |
| CCGCCTAC | 0.217 |
| CCAAGAAC | -0.0658 |
| AGTTCAAT | -0.12 |
| ACTACAAA | -0.0958 |
| TTAGCTAA | -0.219 |
| CGGTCCGC | 0.298 |
| ACCACAAG | -0.197 |
| ACGATCCG | 0.126 |
| ATTGCGTG | -0.00502 |
| GGTCGAGA | -0.178 |
| ATGTCGAG | -0.144 |
| CCGGTGCC | 0.328 |
| ATGCCATC | -0.0344 |
| AACCCGGA | 0.205 |
| ACCTAGCC | 0.0595 |

| Sequence | PBM E-score |
| --- | --- |
| AGGCTGTG | -0.258 |
| GTTCAGTA | -0.132 |
| ACGCGGTA | 0.215 |
| GCATATAC | 0.156 |
| CTCGGATC | 0.115 |
| CAACTCTG | -0.0585 |
| AACAGACC | -0.00407 |
| CGTTATCC | 0.102 |
| CCTGACCG | -0.0108 |
| CATTCGCC | 0.0286 |
| AAAGATTT | -0.0925 |
| CACAGTAC | -0.201 |
| CTCCATTC | -0.191 |
| AAATCATT | -0.11 |
| CTACGGTC | 0.17 |
| CTCGGGGC | 0.215 |
| AGAATCCC | 0.0371 |
| CCCTTTTC | -0.197 |
| ATTGCTCC | 0.234 |
| CAGTCCGG | 0.189 |
| CACAACAC | -0.122 |
| CATAGGCG | -0.114 |
| TACACCTA | -0.109 |
| CCTTCCAA | -0.194 |
| GTATAGCA | -0.0177 |

| Sequence | PBM E-score |
| --- | --- |
| GGGCAAAA | 0.214 |
| GAACGCTA | -0.11 |
| GCAGGGAC | -0.244 |
| GCTAGAGC | -0.0873 |
| ACGGGCAT | 0.363 |
| AGACTGTG | -0.184 |
| CTAATGTC | 0.05 |
| ATATCCGC | 0.402 |
| AGTTGTTC | -0.158 |
| CAAAAAGG | -0.182 |
| GTACGGAA | 0.117 |
| ATATCGGA | 0.166 |
| CAGCCTGG | -0.0787 |
| CTCCTACC | 0.0811 |
| TACCCGTA | 0.0685 |
| TCGGATAA | 0.272 |
| AAAAGGGT | -0.27 |
| TCTTATAA | 0.214 |
| ATCGCCGA | 0.387 |
| AGTCCCCA | -0.272 |
| CGGTCAGA | 0.17 |
| CGCGTAAC | 0.16 |
| TCACTCCA | -0.135 |
| CAGCGCTC | 0.0694 |
| ATTAAAGC | 0.129 |

| Sequence | PBM E-score |
| --- | --- |
| CTTCGCGA | 0.0987 |
| CGTTATAA | 0.23 |
| AGCAGTTC | -0.177 |
| AAATGGAC | 0.141 |
| TCAGGTAA | -0.0797 |
| AGGCCATC | -0.126 |
| TACGGGGA | 0.267 |
| ATCAGCCA | -0.128 |
| AAATAATG | -0.022 |
| CCGAATAC | 0.159 |
| GGACGAAC | 0.154 |
| GCTAAGCA | 0.0819 |
| AACGTAGT | -0.132 |
| ATATGGTA | -0.205 |
| CACATTGA | -0.00508 |
| GTAAGATA | 0.0697 |
| ACCCTGGC | -0.262 |
| CGTTGTAA | -0.00989 |
| TATCAAAA | -0.0856 |
| GATCACAA | 0.0269 |
| ATATACAA | 0.0395 |
| CTCGTCAC | -0.166 |
| ACTACATC | -0.147 |
| GAAACGGC | 0.202 |
| CAACTTTA | -0.124 |

| Sequence | PBM E-score |
| --- | --- |
| GCCCGAGA | 0.0794 |
| CCAAGCAC | -0.174 |
| GTGTGTAA | -0.233 |
| ACGATCGT | -0.249 |
| AGAACCAC | 0.0238 |
| GGCCTGTA | -0.0679 |
| CCTCTTGA | -0.421 |
| GTGGGGAA | 0.00123 |
| AAGGCCAT | 0.107 |
| CTGCGCAC | 0.0783 |
| GCCGGTCA | 0.198 |
| GGTGTTAA | 0.447 |
| ACCATTGC | 0.0412 |
| GCGAAACA | -0.0698 |
| CGAGTTAC | -0.104 |
| AGAGGTTC | -0.0835 |
| CTCACGAG | -0.214 |
| CTCAATTC | -0.175 |
| ATCATGCA | -0.289 |
| ACACGTGC | -0.133 |
| CAACGGTA | 0.228 |
| ATAAGGAC | -0.129 |
| CACAGCAG | -0.283 |
| ACGGGAGC | -0.0502 |
| TAGGTCCA | -0.0733 |

| Sequence | PBM E-score |
| --- | --- |
| CCAGATGA | -0.162 |
| AATACGTA | 0.087 |
| ATTATCAC | 0.137 |
| TATCTTAA | -0.0272 |
| AGTCTCAC | -0.0901 |
| CATGAACG | -0.0401 |
| GGGGGCGA | -0.0746 |
| CAGCCACA | -0.141 |
| AATCGATT | -0.0447 |
| CCCAAGCC | -0.044 |
| CTGGCACC | 0.221 |
| CTGCGTAC | -0.135 |
| CACCGCAC | 0.357 |
| GCATGGCA | -0.0129 |
| CAGCTTGG | -0.162 |
| ACGGGTAA | -0.0254 |
| GCGAAACC | 0.0669 |
| TCTATAGA | -0.0415 |
| GCGCCCAA | 0.0316 |
